# Out of some 420,000 compounds screened, about 50,000 (12%) were called active. The shares of active, inactive and inconclusive entries below differ from those in the screen. The call rests on the fitted dose curve; in most records, active means well fitted inhibition curve with a large enough effect; inconclusive means small, poorly fitted or top-dose-only effect; inactive means flat fitted curve, though single readings scatter. No potency is given beside an inconclusive call; the fits are too rough.
# Assay: qHTS for Inhibitors of human tyrosyl-DNA phosphodiesterase 1 (TDP1): qHTS in cells in presence of CPT; further: nearly all actives have a fitted effect of over 55% in size
# Conditions: chicken DT40 Tdp1-/-;hTDP1 cells + 20 nM CPT, ATP luminescence, 48 h; series mostly up to 46.2 µM
# Method in brief: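 Cell growth measured by CellTiter-Glo luminescence after a minimum 48 h, 37 C compound exposure with 20 nM CPT in Tdp1-knockout DT40 cells stably expressing hTDP1, seeded 400/well; qHTS titration format.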
# Potency means the concentration at half of the fitted maximal effect; tags describe the fitted curve by direction and shape.
row,SMILES,Potency
1,CN(CCNC(=O)c1ccc(CS(=O)(=O)c2ccc(Br)cc2)o1)CCc1ccccc1,"inconclusive [inhibitor, single point]"
2,CN(c1ccc(OCC(=O)Nc2nc(-c3ccccc3)cs2)cc1)S(=O)(=O)c1ccc(F)cc1,active: 18.4 µM
3,CCOc1ccc2[nH]c(C(=O)N/N=C/c3cccc(OC)c3OC)cc2c1,"inconclusive [inhibitor, single point]"
4,O=C(CCC1CCCN(Cc2ccc(O)c(Cl)c2)C1)NCc1ccccc1F (stereo not given),inactive
5,CN(C)S(=O)(=O)Nc1ccccc1F,inactive
6,COc1ccccc1CNC(=O)CC(c1ccc(C)cc1)N1Cc2ccccc2C1=O (stereo not given),"inconclusive [inhibitor, single point]"
7,CN(C)c1cccc2c(S(=O)(=O)N3CCCC3)cccc12,inactive
8,CC(c1ccon1)N(C)C(=O)CCc1nnc(C2(c3ccc(Cl)cc3)CCC2)o1 (stereo not given),"inconclusive [inhibitor, single point]"
9,COc1ccc2c(c1)Cc1sc(NC(=O)c3cccc(C)c3)nc1-2,"inconclusive [inhibitor, single point]"
10,O=[N+]([O-])c1ccc(CSc2ncnc3ccccc23)cc1,"inconclusive [inhibitor, partial curve, poor fit]"
11,Cc1nnc(NCc2n[nH]c(=O)c3ccccc23)c2ccccc12,active: 5.8 µM
12,Cn1c(N)c(C(=O)COC(=O)c2ccc(OC(F)F)cc2)c(=O)n(C)c1=O,inactive
13,CC(C)(C)C(=O)Nc1nnc(COc2ccc(Cl)cc2)s1,inactive
14,CCc1ccccc1NC1=NCC(=O)N1Cc1ccc2c(c1)OCO2,"inconclusive [inhibitor, single point]"
15,Cc1c(C(=O)N2CCCCC2)c(S(=O)(=O)N2CCN(c3ccc(Cl)cc3)CC2)c(C)n1C,"inconclusive [inhibitor, single point]"
16,COc1cccc(NC(=O)CN(C)CC(=O)NC(C)c2ccccc2)c1 (stereo not given),"inconclusive [inhibitor, single point]"
17,CCC1Oc2ccccc2N(CC(=O)NCCCN2CCN(c3ccc(OC)cc3)CC2)C1=O (stereo not given),inactive
18,CCCSc1cc(=O)n(-c2ccccc2)nc1C(=O)OCC,"inconclusive [inhibitor, partial curve, poor fit]"
19,O=C(N/N=C/c1cc([N+](=O)[O-])ccc1O)C12CC3CC(CC(C3)C1)C2,"inconclusive [inhibitor, single point]"
20,CCOc1ccc(/C=N/NC(N)=S)cc1,"inconclusive [inhibitor, single point]"
